Experimental data reported in PubChem BioAssay AID588342 (National Center for Advancing Translational Sciences (NCATS), 2011).
Hit rate of the full screen: of about 360,000 compounds, about 25,000 (6.9%) were called active. This list was built around the results that the source calls inconclusive (neither active nor inactive); the mix of calls is not that of the screen. Calls follow the shape of the dose curve; as a rule, active = well fitted inhibition curve with a large enough effect; inconclusive = small, poorly fitted or top-dose-only effect; inactive = flat fitted curve, though single readings scatter. A potency beside an inconclusive call is a rough fit, not a confirmed value.

Each compound was assayed against Luciferin 4-monooxygenase (Photinus pyralis) (UniProt P08659) (assay: qHTS profiling assay for firefly luciferase inhibitor/activator using purifed enzyme and Km concentrations of substrates (counterscreen for miR-21 project)). Details: purified FLuc, luminescence inhibition; activity change, negative = inhibition: at 57.5 µM (top of the series).
Method in brief: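 Purified P. pyralis luciferase (10nM final) with 10uM D-luciferin and 10uM ATP (Km levels) in 50mM Tris acetate pH 7.5, 10mM Mg acetate, 0.01% Tween-20, 0.05% BSA; qHTS 6-point titration, ~60 µM downward; luminescence read.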
Also: nearly all actives have a fitted effect of over 55% in size.
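For activity change, negative = inhibition in this document: plate controls were vehicle for no effect and reference inhibitor for full effect.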
Potency is read from the fitted curve at half-maximal effect; tags tell the direction and shape of the fitted curve.

UniProt P08659, sequence (P08659 whole entry, looked up): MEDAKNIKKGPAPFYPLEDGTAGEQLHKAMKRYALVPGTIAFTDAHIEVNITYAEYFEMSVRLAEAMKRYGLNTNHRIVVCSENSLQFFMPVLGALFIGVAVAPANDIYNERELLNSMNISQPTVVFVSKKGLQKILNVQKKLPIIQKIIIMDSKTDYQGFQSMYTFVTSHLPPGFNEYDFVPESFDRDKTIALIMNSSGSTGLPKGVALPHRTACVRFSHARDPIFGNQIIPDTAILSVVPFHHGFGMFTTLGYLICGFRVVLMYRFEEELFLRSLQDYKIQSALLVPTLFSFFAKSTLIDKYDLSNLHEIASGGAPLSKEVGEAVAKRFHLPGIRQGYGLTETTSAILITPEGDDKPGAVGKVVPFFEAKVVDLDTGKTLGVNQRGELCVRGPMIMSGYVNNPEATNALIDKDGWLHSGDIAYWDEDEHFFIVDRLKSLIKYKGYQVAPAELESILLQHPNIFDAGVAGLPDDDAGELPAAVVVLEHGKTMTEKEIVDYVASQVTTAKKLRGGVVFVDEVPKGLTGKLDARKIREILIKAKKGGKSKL

| SMILES | Potency | activity change, negative = inhibition |
| --- | --- | --- |
| CCN1CCN(Cc2ccc(NC(=O)Nc3ccc(OC)cc3)cc2)CC1 | inconclusive: 21.3 µM [inhibitor, single point] |  |
| CN(C(=O)c1ccc(NC(=O)Cc2cccc([N+](=O)[O-])c2)cc1)C1CC1 | inconclusive: 33.8 µM [inhibitor, single point] |  |
| Oc1ccc2c(c1)C1CCCC1(N1CCOCC1)O2 (stereo unspecified) | inconclusive: 23.9 µM [inhibitor, single point] |  |
| Cn1nnnc1Sc1ncnc2scc(-c3ccc(Cl)cc3)c12 |  | inactive: 5.15% |
| COc1ccc(-c2ncc(CN3CCC(CO)(Cc4cccc(OC)c4)CC3)cn2)cc1 | inconclusive: 37.9 µM [inhibitor, partial curve, poor fit] |  |
| Oc1c(C=Nc2ccccc2)sc(=S)n1Cc1ccccc1 | inconclusive: 37.9 µM [inhibitor, partial curve, poor fit] |  |
| CN(Cc1ccccc1)C(=O)CN1CCN(S(=O)(=O)c2ccc(Cl)c(Cl)c2)CC1 |  | inactive: 1.57% |
| CCN1CCc2c(sc(NC(=O)c3ccc4ccccc4c3)c2C(N)=O)C1 | active: 2.39 µM |  |
| CC(C)NC(=O)/C(C#N)=C/c1cccc(NC(=O)c2ccccc2Cl)c1 | inconclusive: 30.1 µM [inhibitor, partial curve, poor fit] |  |
| O=C(NCCc1ccc(C(F)(F)F)cc1)c1ccc2c(c1)OCO2 |  | inactive: 3.23% |
| O=C(Nc1ccc(Br)cc1)c1cccc(C(=O)Nc2ccc(Br)cc2)c1 | inconclusive: 21.3 µM [inhibitor, partial curve] |  |
| COc1ccccc1-c1ccc(/C=C2/C=C(CC(C)C)OC2=O)o1 | inconclusive: 26.9 µM [inhibitor, partial curve, poor fit] |  |
| Cc1ccccc1CSc1nnc(C)n1N |  | inactive: -1.96% |
| O=C(COc1ccc2c(-c3ccccc3)cc(=O)oc2c1)NCCN1CCOCC1 | inconclusive: 26.9 µM [inhibitor, partial curve, poor fit] |  |
| C/C(CC(=O)NC1CCCCC1)=N\NC(=O)COc1ccc(C)cc1Br |  | inactive: -13.2% |
| COC(=O)c1ccccc1NC(=O)c1ccc2c(=O)n3c(nc2c1)CCCCC3 | inconclusive: 16.9 µM [inhibitor, partial curve, poor fit] |  |
| Cc1ccc(N=Cc2ccc(N(C)C)cc2)cc1 | inconclusive: 0.478 µM [inhibitor, full curve, poor fit] |  |
| CC(C)C(=O)N(c1ccc(F)cc1)C1C=CS(=O)(=O)C1 (stereo unspecified) |  | inactive: -2.5% |
| Cc1cnc(C(=O)OCC(=O)c2ccccc2)cn1 | inconclusive: 21.3 µM [inhibitor, partial curve, poor fit] |  |
| Cc1nn(-c2ccccc2)c(Cl)c1/C=N/NC(=O)c1ccn[nH]1 | active: 0.757 µM |  |
| Cc1ccc(-c2nc3ccccc3[nH]c2=O)cc1 | inconclusive: 8.49 µM [inhibitor, full curve] |  |
| Cc1ccnc(NS(=O)(=O)c2ccc(NC(=O)c3cc(-c4ccc(Br)cc4)nc4ccccc34)cc2)n1 |  | inactive: -22% |
| CCOc1ncccc1C(=O)Nc1ccc2nc(C)sc2c1 | inconclusive: 23.9 µM [inhibitor, partial curve] |  |
| O=C(NCCCNC(=O)c1cnccn1)c1cccc(F)c1 |  | inactive: 0.366% |

| SMILES | Potency | activity change, negative = inhibition |
| --- | --- | --- |
| CC/C(O)=C1\C(=O)CC(c2ccccc2)CC1=NCCc1c(C)[nH]c2ccc(C)cc12 (stereo unspecified) | inconclusive: 23.9 µM [inhibitor, partial curve, poor fit] |  |
| Cc1cccc(C)c1NC(=O)CCCN1C(=O)CCn2nc(-c3cn(C)c4ccccc34)cc21 |  | inactive: -0.484% |
| CCCOc1ccc(N/C=C/C(=O)c2cc(OC)c(OC)c(OC)c2)cc1 | inconclusive: 21.3 µM [inhibitor, single point] |  |
| COCCn1c(N)c(N(Cc2ccccc2)C(=O)Cc2c(Cl)cccc2Cl)c(=O)[nH]c1=O |  | inactive: 0.886% |
| CCc1nnc(NC(=O)CSc2nnc(-c3c[nH]c4ccccc34)n2CCOC)s1 | inconclusive: 23.9 µM [inhibitor, partial curve, poor fit] |  |
| Cc1ccc(-c2csc(N/N=C/c3ccco3)n2)c(C)c1 |  | inactive: -13.4% |
| COc1ccc(-c2noc(-c3ccc(Cl)cc3[N+](=O)[O-])n2)cc1OC | active: 4.26 µM |  |
| Cc1c([N+](=O)[O-])c(C(=O)Nc2ccc3c(c2)OCCO3)nn1C | inconclusive: 26.9 µM [inhibitor, partial curve] |  |
| COCCN1CCn2c(nc3cc(NC(=O)c4cccs4)ccc32)C1 | inconclusive: 26.9 µM [inhibitor, partial curve, poor fit] |  |
| Cc1cccc(N=CC=C2OC(C)(C)C(C)(C)O2)c1 | inconclusive: 19 µM [inhibitor, partial curve] |  |
| Cc1sc(NC(=O)c2ccccc2F)c(CN2CCCCC2C)c1C (stereo unspecified) | inconclusive: 13.5 µM [inhibitor, partial curve] |  |
| O=C(Nc1cccc(NS(=O)(=O)c2ccc(S(=O)(=O)NC3CC3)cc2)c1)c1ccccn1 | inconclusive: 23.9 µM [inhibitor, partial curve, poor fit] |  |
| CC1Sc2ccc(S(=O)(=O)CCC(=O)N3CCCC3)cc2NC1=O (stereo unspecified) |  | inactive: -0.357% |
| Nc1nc2ccc(N3CCOCC3)cc2s1 | active: 10.7 µM |  |
| CSc1nc2ccc3nc(NC(=O)c4cccs4)sc3c2s1 | active: 2.13 µM |  |
| Cc1cc(NC(=O)/C=C/c2ccco2)ccc1NC(=O)c1ccccc1 | inconclusive: 21.3 µM [inhibitor, single point] |  |
| Cc1ccccc1Nc1nc(N)nc(CSc2ccccc2)n1 | active: 2.13 µM |  |
| Cc1cc(N2CCN(c3cccc(C)c3C)CC2)n2nc(C)c(-c3ccc(Cl)cc3)c2n1 |  | inactive: -2.97% |
| CCc1ccccc1NC(=O)Nc1ccsc1C(=O)OC | inconclusive: 37.9 µM [inhibitor, partial curve, poor fit] |  |
| Cc1nn(-c2ccccc2)c(C)c1CN |  | inactive: -0.663% |
| COc1ccc2sc(/C=C/c3ccccc3O)[n+](C)c2c1 | inconclusive: 23.9 µM [inhibitor, partial curve, poor fit] |  |
| CCOC(=O)c1nnc(-c2ccc(C)cc2)nc1N1CCSCC1 | active: 13.5 µM |  |
| Cc1cc(NC(=O)CC2CCCC2)n(-c2nc3ccccc3[nH]2)n1 |  | inactive: 0.643% |
| CN(CCc1ccccn1)C(=O)Nc1ccc(C(C)(C)C)cc1 | inconclusive: 26.9 µM [inhibitor, partial curve, poor fit] |  |

| SMILES | Potency | activity change, negative = inhibition |
| --- | --- | --- |
| O=C(Nc1nc2ccccc2[nH]1)c1ccc([N+](=O)[O-])cc1 | inconclusive: 1.07 µM [inhibitor, full curve] |  |
| O=C(O)CSc1nc2ccc(C(=O)c3ccccc3)cc2[nH]1 | inconclusive: 16.9 µM [inhibitor, partial curve] |  |
| Cc1cc(NS(=O)(=O)c2ccc(NS(=O)(=O)c3ccc(CC(C)C)cc3)cc2)nc(C)n1 | inconclusive: 23.9 µM [inhibitor, partial curve] |  |
| O=C(NC(=S)N1CCCC(C(F)(F)F)C1)c1ccc(F)cc1 (stereo unspecified) |  | inactive: -1.79% |
| CCOc1ccccc1NC(=S)Nc1ncccc1C | inconclusive: 30.1 µM [inhibitor, single point] |  |
| COc1ccccc1NC(=O)c1ccc2oc(=O)c(S(=O)(=O)c3ccccc3)cc2c1 |  | inactive: 5.65% |
| CC(=O)c1sc(NC(=O)c2ccc(F)cc2)nc1-c1ccccc1 | inconclusive: 2.13 µM [inhibitor, partial curve, poor fit] |  |
| C#CCNC(=O)C1=C[C@@H](c2ccc(Br)cc2)C[C@@H](OCc2ccc(CO)cc2)O1 | inconclusive: 23.9 µM [inhibitor, single point] |  |
| COc1ccc(NC(=S)Nc2ncccc2C)cc1OC | inconclusive: 23.9 µM [inhibitor, single point] |  |
| CC(C)(C)c1ccc(C(=O)NC(=S)NNC(=O)c2cccs2)cc1 | inconclusive: 12 µM [inhibitor, partial curve, poor fit] |  |
| CC(OC(=O)CCCN=C1NS(=O)(=O)c2ccccc21)C(=O)Nc1ccc(F)c(F)c1F (stereo unspecified) |  | inactive: 2.3% |
| CCOc1ccccc1C(=O)Nc1ccc(S(=O)(=O)Nc2onc(C)c2C)cc1 | inconclusive: 13.5 µM [inhibitor, partial curve, poor fit] |  |
| CC(=O)c1ccc(NC(=O)Cn2cnc3nc4c(cc3c2=O)CC(C)CC4)cc1 (stereo unspecified) |  | inactive: -18% |
| CCCCC(=O)Oc1ccc2oc(-c3ccc(OC)cc3)cc(=O)c2c1 | inconclusive: 8.49 µM [inhibitor, partial curve, poor fit] |  |
| CN(C)c1cccc(C(=O)Nc2nnc(Cc3ccccc3)s2)c1 | inconclusive: 30.1 µM [inhibitor, single point] |  |
| CCOC(=O)c1c(SCC(=O)Nc2nc3ccccc3s2)nc(=O)[nH]c1C | inconclusive: 6.75 µM [inhibitor, partial curve, poor fit] |  |
| Cc1ccc(NC(=O)CSc2nc3ccc(NC(=O)c4cccs4)cc3s2)cc1 | inconclusive: 7.57 µM [inhibitor, partial curve, poor fit] |  |
| O=C1NCCC/C1=N\Nc1ccc(Br)cc1 | inconclusive: 37.9 µM [inhibitor, single point] |  |
| CNS(=O)(=O)c1cc(NC(C)=O)c(C)cc1C |  | inactive: 2.04% |
| Brc1ccc(Sc2cnc3ccccc3n2)cc1 | inconclusive: 23.9 µM [inhibitor, single point] |  |
| CN(Cc1ccc(F)cc1)S(=O)(=O)c1nnc(NC(=O)c2ccccc2Br)s1 | inconclusive: 23.9 µM [inhibitor, partial curve] |  |
| O=C(CCn1cnc2ccccc2c1=O)Nc1nc(-c2ccc(Br)cc2)cs1 |  | inactive: -1.09% |
| O=C(Nc1nc(-c2cccs2)cs1)c1ccc(Cl)cc1 | active: 10.7 µM |  |
